Data published in ChEMBL document CHEMBL4888484, “Replenishing the malaria drug discovery pipeline: Screening and hit evaluation of the MMV Hit Generation Library 1 (HGL1) against asexual blood stage Plasmodium falciparum ,using a nano luciferase reporter read-out” (2022).
Hit rate of the full screen: of about 150,000 compounds, about 540 (0.36%) showed an effect of 50% or more. The list shows a part of the results.

Test system: Plasmodium falciparum
Experiment: Primary screen in NF54 nanoGlo assay, in single point, at 2uM, 72h; a lower Z score goes with more inhibition
Type: functional, Erythrocyte
Settings: timepoint 72 hour

Structure (SMILES)	% Inhibition [%]	Z score
NC(=O)CC1CCN(S(=O)(=O)CC2CCC(C3CC3)O2)CC1 (stereo unspecified)	0	-0.03
CC(C)N1CCC2(CC1)N=C(c1ccc3c(c1)OCO3)C[C@@H](c1cc(Cl)ccc1O)N2	37	-7.51
CN(C)c1ccc(C(=O)N[C@@]2(C)CCS(=O)(=O)C2)cc1	33	-4.2
N#CC1(C(=O)N2CCc3ccccc3C2)CCCCC1	-4	0.39
CCn1ncc(Cl)c1C(=O)Nc1ccncc1	-12	1.58
CCOc1ccc(-c2nsc(NC(=O)c3ccco3)n2)cc1OC	9	-1.42
COc1ccc(NC(=O)[C@@H]2COCCN2CC2CCC2)c(C)n1	-5	0.7
Cc1occc1C(=O)N1CC2OCCN(Cc3ccccc3)C2C1 (stereo unspecified)	-4	0.4
C[C@H]1CN(C(=O)C2=CCCC2)CCC1(F)F	-17	1.71
CCn1nc(C(=O)O)c2c1CC[C@H](NCc1oc3ccccc3c1C)C2	1	-0.13
Cc1ccc(C(=O)Oc2ccc(N(C(=O)c3ccc(C)cc3)S(=O)(=O)c3ccccc3)cc2)cc1	-20	2.62
COc1ccc(CCNc2nc(-c3ccc(OC)cc3F)c3c(N)n(-c4ccc(Cl)cc4)nc3n2)cc1	45	-3.7
CCNC(=O)N1CCN(c2nc3cc(Cl)ccc3c3nnc(-c4cccc(C)c4)n23)CC1	-6	0.92
Cn1cc([C@@H](NC(=O)OCCCF)C2(CO)CCC2)cn1	-2	0.37
Cc1ccc(-c2nc(-c3ccc(-n4cccn4)nc3)no2)cc1	-24	2.53
C[C@H]1COCCN1C(=O)c1cc(S(=O)(=O)C2CCCC2)ccc1F	34	-3.82
O=C(Cn1c(-c2cccs2)cc2cc(F)ccc21)NCc1ccc(F)cc1	10	-1.5
N#Cc1nc(C2CC2)oc1N1CCN(C(=O)[C@H]2CCOC2)CC1	-8	1.02
CN1CCC[C@H](CCNC(=O)c2cnnn2-c2ccccc2)C1	0	0.04
O=C(N[C@H]1CCOC[C@@H]1OCc1ccccc1)c1ccncc1	1	-0.18
Cc1ccc(C(=O)N(CCCN2CCCC2=O)C2CCOCC2)cn1	-6	0.76

Structure (SMILES)	% Inhibition [%]	Z score
O=C(N[C@H](c1cncc(Br)c1)C1CC1)c1ccncc1	0	-0.04
C[C@H]1CN(C(=O)Cn2cnc3c(c2=O)COCC3)CC(C)(C)O1	0	0.09
O=C(O)Cn1nc(Cc2cccc(Cl)c2)nc1-c1ccc(CO)cc1	-14	1.43
Clc1ccc(C2(c3nnc(-c4ccccc4)o3)CCOCC2)cc1	-6	1.11
O=C(Nc1ccccc1CCc1ccccn1)N1CCOC[C@@H]1CO	4	-0.55
CN1CCN(C(=O)CCc2cc3n(n2)CCN(Cc2nccn2C)C3)CC1	-24	2.41
O=C(Cc1cccs1)N[C@H](c1cccs1)C1CCOCC1	-8	1.04
Cc1nc2c(c(NC[C@H]3CCCO3)n1)CCC2	-14	1.48
N[C@H]1CC12CCC(NC(=O)Cc1coc3c(F)c(F)ccc13)CC2 (stereo partly specified)	0	-0.09
CC(=O)Nc1ccc2nc(CN3CCC[C@H](N4CCc5ccccc5C4)C3)ccc2c1	1	-0.14
COCCC1(NC(=O)C(O)C(O)c2nc3ccccc3s2)CCC1 (stereo unspecified)	2	-0.31
O=C(c1cn(CCN2CCOCC2)nn1)N1CCc2ccccc2C1	-6	1.06
O=C(N1CCOCC1)N1CCn2nc(C3CC3)cc2C1	17	-2.2
COc1cc(NC(=O)C2CCN(c3c(C)n(-c4ccccc4)c(=O)n(C)c3=O)CC2)cc(OC)c1	-6	1.2
Fc1cc(OCCN2CC[C@@]3(CCCOC3)C2)ccc1Cl	-5	0.86
COc1ccc(CNC(=O)C[C@H]2c3ncccc3C(=O)N2c2ccccc2)c(OC)c1	-9	1.77
CC(=O)Nc1c2n(c3ccccc13)C[C@@](C)(C(=O)NC1CCCC1)N(C1CCC(C)CC1)C2=O (stereo partly specified)	-1	0.13
CC(C)NC(=O)[C@H](C)Oc1ccccc1C(C)C	4	-0.4
Cc1nc([C@H](C)NC(=O)c2cn3cccc(C)c3n2)n[nH]1	-5	0.91
Cc1cccc(C(=O)N2[C@H](C(=O)NCc3ccccc3)COC23CCN(C(=O)c2ccc(F)cc2)CC3)c1	-5	0.81
COc1ccc(OCc2nc(-c3ccoc3)no2)cc1F	5	-0.59

Structure (SMILES)	% Inhibition [%]	Z score
C[C@H]1CCCN(C(=O)c2nc(-c3cnccn3)no2)C1	-19	2.77
Cc1ccc(C(=O)N2CCN(c3cc(-n4cnc(C)c4C)nc(C)n3)CC2)cc1	-26	2.27
COCCC1(c2noc([C@H]3CCN(CC(F)(F)F)C3)n2)CCC1	-4	0.61
O=C(NC1CCCCC1)c1cnsn1	-6	0.85
CO[C@@](C)(CNC(=O)N1CCNC1=O)c1ccccc1F	10	-1.21
Cc1c(CN2C[C@H](O)[C@@H](N3CCN(C)CC3)C2)[nH]c2ccc(Cl)cc12	-1	0.14
COc1ccsc1S(=O)(=O)N[C@@H](C(C)C)[C@H](O)C(F)(F)F	0	0.03
Cc1cc(C(=O)NC2CCCC(C)C2C)no1 (stereo unspecified)	-18	2.03
CC(C)N1C(=O)CN(C(=O)[C@H]2CCO[C@@H]2c2cnn(C)c2)CC1(C)C	-5	0.91
CC(C)n1cccc1C(=O)OC1CCCC(S(C)(=O)=O)C1 (stereo unspecified)	-18	2.44
C[C@H](NS(=O)(=O)Cc1cccc(F)c1)C(N)=O	-5	0.72
CCN(C)C(=O)c1coc(CN2C(=O)COc3ccc(C(=O)COc4cc(C)cc(C)c4)cc32)n1	-18	2.76
CN(C(=O)c1n[nH]c(=O)c2ccccc12)C1CCCC1	-5	0.74
Cn1cccc1C(=O)N1C[C@@H]2C[C@H]1C[C@@H]2NC(=O)c1ccccc1	-11	1.66
O=C1CO[C@H]2CN(Cc3c[nH]c4ccccc34)C[C@H]2N1Cc1ccccn1	19	-3.02
O=C(O)[C@@H]1Cc2ccccc2C(=O)N1CCc1ccccc1	10	-1.54
O[C@H]1CN(CCCCOc2ccccc2)C[C@@H]1F	2	-0.4
CS(=O)(=O)N1CC(CONC(=O)CCCc2ccccc2)C1	-11	1.38
O=C(Cc1ccc(F)c(F)c1)N1CCC(C2(c3ccccn3)NC(=O)N(CC3CCCO3)C2=O)CC1 (stereo unspecified)	16	-2.03
CCC[C@]1(COC)CCCN1Cc1csc(-c2c(C)c(C)nn(C)c2=O)n1	-15	2.3
COCc1noc(CCNC(=O)[C@H](O)c2ccccc2Cl)n1	-11	1.39

Structure (SMILES)	% Inhibition [%]	Z score
CCC(C)N1C(=O)C(Cc2ccccc2)NC12CCN(S(=O)(=O)c1ccc(Cl)c(Cl)c1)CC2 (stereo unspecified)	-19	1.66
CCNc1cc(C)ccc1NC(=O)C1CN(C)CC1C(F)(F)F (stereo unspecified)	-9	1.03
CCN1CCO[C@H](C(=O)N2CCCc3cc(OC)ccc3C2)C1	-15	1.92
CCOC(=O)C(=O)Nc1ccc(C(C)(C)C)cc1	-13	2.28
Cc1nn(C)c(C)c1CC(=O)N1CCCc2ccccc21	-11	1.56
Fc1cc(-c2ccc(-c3ccon3)s2)c2ncccc2c1	-12	1.51
CCN(CC)S(=O)(=O)c1ccc2c(c1)nnn2CCNC(=O)Nc1cccc(F)c1	26	-2.96
O=C(CN1C(c2ccc(Cl)cc2)=C[C@@H](c2ccccc2)n2nnnc21)Nc1ccccc1	-11	1.91
CCC(=O)c1cccc(C[C@H]2CC(=O)N(CCOC)C2)c1	3	-0.53
CN(C(=O)c1ccc2c(c1)N(S(C)(=O)=O)CC2)c1cccc(C(F)(F)F)c1	-13	2.14
COc1ccc(Cc2nc(-c3ccc(N4CCCC4)cc3)no2)cc1	-6	0.84
CS(=O)(=O)[C@H]1CCCCN(c2nnc(C(F)F)o2)C1	19	-2.37
CCCCn1nc(-c2ccncc2)nc1CN(C)C	-2	0.3
Cc1ccc(CNC(=O)N2C[C@H](O)[C@@H](F)C2)cc1	-6	0.76
CCC1[C@@H](C)C(Nc2ccccc2)c2ccccc2N1C(=O)c1ccc(Br)cc1 (stereo partly specified)	-14	1.6
O=C(Cn1nnc2ccccc2c1=O)N1CCc2nc[nH]c2C1	-4	0.62
NS(=O)(=O)[C@H]1CCc2ccccc2C1	-3	0.36
N#CCCN(CC1CCC1)S(=O)(=O)CCc1ccccn1	-7	0.85
CCCNC(=O)[C@@H]1CCCC[C@@H]1c1nc(C)nn1-c1ccc(F)cc1F	-8	1.48
O=C([C@@H](c1ccccc1)n1nnc(-c2ccccc2Br)n1)N1CCCC1	34	-3.97
